{"source": "patent US20210340214A1", "about": "(Five Prime, published 2021)", "binders": {"B1": {"name": "human CD80 ECD:human IgG Fc fusion protein comprising the amino acid sequence of SEQ ID NO:5 (Fc fusion)", "chain": "VIHVTKEVKEVATLSCGHNVSVEELAQTRIYWQKEKKMVLTMMSGDMNIWPEYKNRTIFDITNNLSIVILALRPSDEGTYECVVLKYEKDAFKREHLAEVTLSVKADFPTPSISDFEIPTSNIRRIICSTSGGFPEPHLSWLENGEELNAINTTVSQDPETELYAVSSKLDFNMTTNHSFMCLIKYGHLRVNQTFNWNTTKQEHFPDN[letters of human IgG1 Fc with changes omitted]", "notes": "also called hCD80ECD:hIgG1Fc; HCD80ECD:hIgG1Fc"}}, "biological_target": "T1, CTLA-4 (UniProt P16410 36-161, limits assumed)", "T1 construct": "Cell-free CTLA-4 reagent of the SPR and ELISA studies; also called cytotoxic T-lymphocyte-associated antigen-4", "T1 sequence (looked up)": "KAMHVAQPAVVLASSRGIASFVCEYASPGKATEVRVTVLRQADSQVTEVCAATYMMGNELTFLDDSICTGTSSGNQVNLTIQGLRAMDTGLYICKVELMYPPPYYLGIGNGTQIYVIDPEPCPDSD", "assay": "CTLA-4 binding ELISA"}
{"binder": "B1", "values": [{"measurement": "EC50", "result": 0.034, "unit": "µg/mL"}]}
